Where a name gives a salt, the structure may show the parent alone. Read-outs that look alike come from different tables or passages of the source.
Test system: influenza virus A/PR-8
Conditions: 24 h and 3 h before infection and 5 times every other day from second day after, 21 days after challenge, untreated control 10%

Row | SMILES | Survival rate (40 mg/kg i.p.) [%] | Survival rate (20 mg/kg i.p.) [%]
1 | CC(C)=CCCC(C)=CCCC(C)=CCCC(C)=CCCC(C)=CCCC(C)=CCCC(C)=CCCC(C)=CCCC(C)=CCCC(C)=CCN [Decaprenylamine hydrochloride] | 70 | 
2 | CC(C)=CCCC(C)=CCCC(C)=CCCC(C)=CCCC(C)=CCCC(C)=CCCC(C)=CCCC(C)=CCCC(C)=CCN [Solanesylamine hydrochloride, solanesylamine hydrochloride] |  | 60
3 | CC(C)=CCCC(C)=CCCC(C)=CCCC(C)=CCCC(C)=CCCC(C)=CCCC(C)=CCCC(C)=CCCC(C)=CCCC(C)=CCCC(C)=CCN [Undecaprenylamine hydrochloride] | 30 | 
